{"source": "PubChem BioAssay AID651820", "about": "(National Center for Advancing Translational Sciences (NCATS), 2012)", "note": "The whole screen tested about 340,000 compounds, of which about 12,000 (3.5%) were called active. Inconclusive means that the source gave no clear call. Such entries were picked first, then a sample of the others. Calls come from the whole dose curve; as a rule, active = well fitted inhibition curve with a large enough effect; inconclusive = small, poorly fitted or top-dose-only effect, or another doubt; inactive = no such curve, though single readings can be large or run the other way. Potencies of inconclusive entries are left out as doubtful fits. % is set by controls: 0 for no effect and ±100 for the full control effect; potency is the fitted concentration of half-maximal effect; tags give direction and shape of the fitted curve."}
{"assay": "qHTS Assay for Inhibitors of Hepatitis C Virus (HCV)", "settings": "Huh7.5.1 HCVcc-Cre (HCVcc is cell-culture hepatitis C virus) infection, luciferase reporter, 44 h; activity change, negative = inhibition: at 41.8 µM (top of the series) unless noted", "in_short": "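HCVcc-Cre virus at an moi near 0.5 was added right after compound to cells cultured 4 h from seeding (1,000 cells/well). Luciferase activity was determined 44 h later, 15 min after substrate addition at RT.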"}
{"smiles": "Cc1nnc(SCC(=O)Nc2cc(S(C)(=O)=O)ccc2Cl)n1Cc1ccccc1", "Potency": "inconclusive [inhibitor, partial curve]"}
{"smiles": "FC(F)(F)c1ccc(-c2cccc3c2C2CC3CCN2Cc2ccccc2)cc1", "note": "(stereo not given)", "Potency": "inconclusive [inhibitor, single point]"}
{"smiles": "Cc1cccc(N2CCN(S(=O)(=O)c3ccc4c(c3)CCCN4C(=O)C3CCC3)CC2)c1C", "Potency": "active: 14.1 µM"}
{"smiles": "COc1ccc(Br)cc1/C=N/NC(=O)CN1CCN(Cc2ccccc2)CC1", "Potency": "inconclusive [inhibitor, partial curve]"}
{"smiles": "CCOC(=O)c1cnc2sc3c(n2c1=O)CCCC3", "Potency": "inconclusive [inhibitor, partial curve]"}
{"smiles": "Cc1ccc(Cl)cc1N1CCN(C(=O)CSc2nnc3n2C(C)(C)Cc2ccccc2-3)CC1", "Potency": "inconclusive [inhibitor, single point]"}
{"smiles": "Cc1cc(Cl)c(S(=O)(=O)NC(C(=O)O)C(C)C)cc1OCC(=O)NC1CCCCC1", "note": "(stereo not given)", "activity change, negative = inhibition": "inactive: 16.9%"}
{"smiles": "CC1=Nc2ccccc2N=C(NC(=O)c2ccccc2)C1c1ccccc1", "note": "(stereo not given)", "Potency": "inconclusive [inhibitor, single point]"}
{"smiles": "Cc1ccc(NC(=O)CCNS(=O)(=O)c2ccc3[nH]c(=O)oc3c2)cc1F", "activity change, negative = inhibition": "inactive: 8.78%"}
{"smiles": "CCOc1ccccc1/C=C/c1onc(C)c1S(=O)(=O)N1CCC(C(=O)NC(C)(C)C)CC1", "Potency": "inconclusive [inhibitor, partial curve]"}
{"smiles": "CSc1nsc(NC(=O)Cc2ccccc2)n1", "Potency": "inconclusive [inhibitor, single point]"}
{"smiles": "COc1ccc2[nH]cc(C(O)CN3CCN(c4ccccc4F)CC3)c2c1", "note": "(stereo not given)", "activity change, negative = inhibition": "inconclusive: -35.5% [inhibitor]"}
{"smiles": "Cc1onc(-c2ccccc2)c1C(=O)N/N=C/c1cc2c(cc1Br)OCO2", "Potency": "inconclusive [inhibitor, partial curve]"}
{"smiles": "CC(C)N1C/C(=C/c2ccsc2)C(=O)/C(=C/c2ccsc2)C1", "Potency": "inconclusive [inhibitor, single point]"}
{"smiles": "CCNc1nc(SCCOc2ccccc2)nc(N(C)C)n1", "Potency": "inconclusive [inhibitor, partial curve]"}
{"smiles": "CC1=C(C(=O)Nc2ccc(CC(=O)NCc3ccc(OC(C)C)cc3)cc2)SCCO1", "Potency": "inconclusive [inhibitor, single point]"}
{"smiles": "O=C(c1ccc(Cl)c(S(=O)(=O)N2CCOCC2)c1)N(Cc1ccco1)Cc1cccs1", "Potency": "inconclusive [inhibitor, partial curve]"}
{"smiles": "Cc1nn(-c2nc3ccccc3n2Cc2ccccc2)c2c1C(=O)CC(C)(C)C2", "Potency": "inconclusive [inhibitor, single point]"}
{"smiles": "COc1ccc2cc3c(N)nn(C(=O)Cc4c[nH]c5ccccc45)c3nc2c1", "Potency": "inconclusive [inhibitor, single point]"}
{"smiles": "CN(C)S(=O)(=O)c1cccc(NC(=O)c2ccc(-n3cncn3)c([N+](=O)[O-])c2)c1", "Potency": "inconclusive [inhibitor, full curve]"}
{"smiles": "O=C(Nc1ccccc1N1CCCC1)C1CCCO1", "note": "(stereo not given)", "Potency": "inconclusive [inhibitor, single point]"}
{"smiles": "COc1ccc(-c2cccc3c2C2CC3CCN2C(=O)OCc2ccccc2)cc1", "note": "(stereo not given)", "Potency": "active: 7.94 µM"}
{"smiles": "Cc1nc(-c2cccnc2)sc1C(=O)Nc1ccc(Cl)cc1", "Potency": "inconclusive [inhibitor, single point]"}
{"smiles": "O=C1CC2(CCN(C(=O)c3ccc([N+](=O)[O-])cc3)CC2)Oc2ccccc21", "activity change, negative = inhibition": "inconclusive: -46.1% [inhibitor]"}
{"smiles": "COc1ccc(Nc2nc3ccccc3nc2C)cc1", "Potency": "inconclusive [inhibitor, partial curve]"}
{"smiles": "NS(=O)(=O)c1ccc(NC(=O)Nc2ccc(C(F)(F)F)cc2)cc1", "Potency": "inconclusive [inhibitor, single point]"}
{"smiles": "COC(=O)C1=C(C)N(Cc2ccccc2)C(=NCc2cc(OC)c(OC)c(OC)c2)N[C@H]1c1ccc(Br)cc1", "Potency": "inconclusive [inhibitor, single point]"}
{"smiles": "CCN1CCN(C(c2cccnc2)c2c(NC(=O)c3ccco3)sc(C)c2C)CC1", "note": "(stereo not given)", "Potency": "inconclusive [inhibitor, partial curve]"}
{"smiles": "O=C(CSc1nnc(Cc2cccs2)n1-c1ccc(Cl)cc1)NCc1ccc2c(c1)OCO2", "activity change, negative = inhibition": "inactive: -9.55%"}
{"smiles": "COc1ccc(C(CCNCc2ccc(OC(C)C)cc2)C(C)C)cc1", "note": "(stereo not given)", "activity change, negative = inhibition": "inconclusive: -82.1% [inhibitor]"}
{"smiles": "C/C(=N\\Nc1nc(N2CCCCC2)nc(N2CCOCC2)n1)c1ccccc1O", "Potency": "inconclusive [inhibitor, full curve]"}
{"smiles": "CN1CCC(N(C)S(=O)(=O)c2ccc(NC(=O)COc3cccc(Cl)c3)cc2)CC1", "Potency": "inconclusive [inhibitor, partial curve]"}
{"smiles": "Cc1ccccc1NC(=O)Cc1nc(COC(=O)c2cccc(O)c2)cs1", "Potency": "inconclusive [inhibitor, single point]"}
{"smiles": "O=C(NCc1cccc(Br)c1)c1cc(-c2ccccc2)nn1CC1CC(c2cccc([N+](=O)[O-])c2)=NO1", "note": "(stereo not given)", "Potency": "inconclusive [inhibitor, partial curve]"}
{"smiles": "COc1ccc(CN(C)C(=O)c2cc(-c3ccc(OC)c(OC)c3)nc3ccccc23)c(OC)c1", "Potency": "inconclusive [inhibitor, single point]"}
{"smiles": "Cc1cccc(N2CCN(C(=O)C3CCCN(S(=O)(=O)c4c(C)noc4C)C3)CC2)c1C", "note": "(stereo not given)", "Potency": "inconclusive [inhibitor, partial curve]"}
{"smiles": "C=CCCC(=O)N1C[C@H]2CON(C)[C@H]2C[C@H]1c1ccccc1Br", "activity change, negative = inhibition": "inactive: -18.3%"}
{"smiles": "Cc1ccccc1C(=O)NN(C)c1nc2ccccc2nc1C(F)(F)F", "activity change, negative = inhibition": "inactive: 19.3%"}
{"smiles": "O=C(Nc1ccc2ccccc2c1)c1onc2c1CCCC2", "Potency": "inconclusive [inhibitor, single point]"}
{"smiles": "[2H]c1c([2H])c([2H])c(C(=O)c2sc(N3CCCCCC3)nc2-c2ccccc2)c([2H])c1[2H]", "Potency": "active: 22.4 µM"}
